# Source: the supplement of paper PMC5499739
# In all, about 16,000 sequences were measured (“Z-score”: median about -0.37, highest 2% from about 3.1 on). The list shows a part of the results.
# System: RBM10 RRM1-ZnF-RRM2 (GST-tagged construct)
# Assay: RNAcompete 7-mer binding Z-score; higher = stronger binding preference
# Procedure, shortened: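 A one-sided Z-score for enrichment, taken across the probes containing each heptamer motif, was assigned to every such motif. The RNA came from a designed pool of 241 399 sequences up to 41 nt (1.5 nmol), bound by 20 pmol of GST-tagged RBM10 constructs in 1 ml Hepes pH 7.8 buffer with glutathione Sepharose beads for 30 min at 4°C. Four 2-min washes at 4°C preceded identification of bound RNA by microarray hybridisation.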
row,Sequence,RNAcompete 7-mer binding Z-score
1,AAGAUUU,-0.588
2,CGUCCCC,-0.439
3,CACCCGU,-0.624
4,GAUAUCA,-0.198
5,CAAUCUA,-0.712
6,UUCACAC,-0.763
7,UGGACGU,1.24
8,ACAUCUU,-0.872
9,AACGUCC,-0.865
10,AGGGUUU,2.4
11,CGGCGCC,-0.318
12,CUCGUAU,-0.57
13,GUUGUGG,1.75
14,GUGAAAA,0.297
15,UACGGCU,-0.333
16,CCUCAGG,-0.493
17,GAAUAUC,-0.453
18,GGAUAAG,2.3
19,UUUCUCU,-0.664
20,GGUUCUA,-0.289
21,UGGCACC,-0.0998
22,CGGGUAA,1.81
23,UUACAAG,-0.296
24,GAAGGAU,3.32
25,AAGUGAA,1.05

row,Sequence,RNAcompete 7-mer binding Z-score
1,GUCCUUA,-0.712
2,GGUGAGG,4.3
3,AUGCCGC,-0.741
4,GAAGUUG,1.16
5,GCGUACC,-0.413
6,GCCCCCU,-0.551
7,ACUUCAU,-0.77
8,CGGUGCC,-0.122
9,CUUGCAC,-0.876
10,GUUGAAU,0.0459
11,UUAGGGU,3.02
12,AACACUU,-0.734
13,AGGUUAG,2.16
14,GAUACGC,-0.347
15,ACAACAG,0.359
16,AACUGCA,-0.369
17,GAUGGGA,3.8
18,GUUAUCA,-0.165
19,GACUUCC,-0.887
20,GCAGGGG,3.15
21,AAAAAGA,0.024
22,AUUCCAG,-0.395
23,GACAUAU,-0.293
24,CUGUUGG,-0.439
25,UAAUUGC,-0.522

row,Sequence,RNAcompete 7-mer binding Z-score
1,UUCCAGU,-0.559
2,AAACCGA,-0.431
3,UAAGGAG,1.9
4,UGAUUUA,-0.3
5,GUGGGUA,3.07
6,CGAUCAA,-0.198
7,UUGUCGA,-0.562
8,GGAGCCU,-0.209
9,CAUUUAG,-0.657
10,UCACCAA,-0.65
11,AUGGGAC,2.47
12,GUGCGCU,0.115
13,UUGAGGG,3.15
14,UUGAAUA,-0.355
15,UUGAUGA,0.0823
16,UCACGGG,0.803
17,CUAGAUC,-0.683
18,UCAUACU,-0.759
19,ACGCCGC,-0.723
20,GUAUCGG,0.752
21,GUGCUCA,-0.286
22,UAACGUC,-0.511
23,CGAGAAA,-0.00877
24,CUCGAUA,-0.595
25,AAAUUUU,-0.825

row,Sequence,RNAcompete 7-mer binding Z-score
1,AAGAGCC,-0.541
2,AGAACUG,-0.114
3,CGGGAGA,1.32
4,GGCCUGG,0.0532
5,CACGUCU,-0.661
6,GACAAGG,3.01
7,GCUCUGA,-0.821
8,GGGUUAU,2.57
9,AUUCAGU,-0.22
10,AUCUGUC,-0.803
11,CUAGGCA,-0.078
12,UGUUCCC,-0.712
13,GAGUUCU,-0.5
14,AAAGCAG,0.512
15,CCAUGAG,-0.264
16,CCGUUUA,-0.897
17,GACAGGC,0.8
18,AUAGACA,0.0532
19,GUAAAUU,-0.129
20,GAGCUUA,-0.446
21,UCACCCU,-0.766
22,UUAGAGU,0.137
23,AUGGUAC,1.05
24,UCGCGGC,-0.391
25,AAAUCGG,0.53

row,Sequence,RNAcompete 7-mer binding Z-score
1,GCACCAG,-0.125
2,ACAACAU,-0.318
3,CCAUAGU,-0.643
4,CUAAAUU,-0.664
5,UGAUUAU,-0.57
6,CCUUUGA,-0.894
7,GCUUUAU,-0.857
8,AGUACAU,-0.0889
9,ACUUUUU,-0.781
10,UGUGUUU,-0.296
11,GUCGAUA,-0.103
12,CGUUUUA,-0.704
13,AACAAAA,-0.235
14,CAUGGGC,1.76
15,ACCGCAC,-0.624
16,UACUCUG,-0.883
17,CCGUUCC,-0.996
18,GUACCAC,-0.256
19,GUGGGCU,1.94
20,UCUAGGU,-0.103
21,UGAUAGU,-0.184
22,CUACCAU,-0.664
23,AUGUAAC,-0.147
24,UUCCCCG,-0.486
25,UGAGACU,-0.315

row,Sequence,RNAcompete 7-mer binding Z-score
1,ACAUUAA,-0.384
2,CGCGUUU,-0.923
3,GAUUGUA,0.0204
4,GUACAGA,0.494
5,CACAAGC,-0.559
6,AGGCAUA,0.239
7,AAGCUCG,-0.296
8,AAACUUG,-0.646
9,AGGACGC,0.0459
10,AACUGUA,-0.515
11,UGUCGGA,0.232
12,CUUUCGC,-0.967
13,GUCUGUC,-0.504
14,ACGGCCA,-0.202
15,UGGAAAC,1.19
16,CCCUUUA,-0.999
17,CAAGGGA,2.5
18,AGUACGG,1.39
19,CUCUAUU,-0.919
20,GUCAUCA,-0.515
21,ACUACCG,-0.606
22,GGGAUCU,0.618
23,GCCAUAA,-0.69
24,GGAAUCC,0.155
25,GUUGCAA,0.00216

row,Sequence,RNAcompete 7-mer binding Z-score
1,AAAGGCU,0.796
2,GCGUAGG,2.21
3,AUUCCCG,-0.821
4,AUGCAGA,0.243
5,AGCUAUA,-0.224
6,CCAGGUA,0.377
7,AGACGGC,-0.326
8,GGUACGA,1.4
9,CUUACCA,-0.657
10,UUAUUUC,-0.792
11,AUUUCGC,-0.996
12,GCAGUCU,-0.533
13,GGACCCC,-0.103
14,CCGCAAA,-0.69
15,GGCAAGA,1.07
16,ACCGCGA,-0.628
17,UUCCAAU,-0.621
18,GAUCAGC,-0.205
19,UUACAGC,-0.42
20,UCAAAGC,-0.304
21,GGCGGUG,2.23
22,AAGGCAC,1.35
23,CGGGCUU,0.578
24,GAUAACG,0.268
25,UACUCGU,-0.672

row,Sequence,RNAcompete 7-mer binding Z-score
1,ACCCCGG,-0.362
2,ACGAGAA,0.348
3,UAUCUCC,-0.734
4,AAUCUGU,-0.792
5,AAGGAAA,3.21
6,UUUUUGG,-0.151
7,GAAGGCC,0.589
8,AGACUCC,-0.948
9,CAAUGGC,0.548
10,CUAUAGC,-0.544
11,AGCCGAC,-0.664
12,AUGGAGG,4.33
13,UCAUGGC,-0.227
14,GCUAUCA,-0.428
15,GGGAGUG,3.84
16,GAAGUAU,0.115
17,CAUUCAA,-0.388
18,GCUAAGC,-0.664
19,AGCGUUA,0.0422
20,CCGCAAU,-0.763
21,ACAAGAU,-0.224
22,UAAGUUG,0.213
23,AGACAGC,-0.475
24,UCGUCGU,-0.195
25,AGGACAU,0.65

row,Sequence,RNAcompete 7-mer binding Z-score
1,ACUCAUA,-0.857
2,GGCCUAG,-0.264
3,GUACUGG,0.494
4,ACUGGAA,0.712
5,CAAUCCC,-0.533
6,GGGAACC,1.89
7,ACCGGGA,1.12
8,UGAGAGU,0.468
9,CAGAUCG,-0.114
10,ACGCCGU,-0.511
11,ACGUCGG,0.261
12,GUAGAGG,4.02
13,AUUGCAG,0.137
14,GCGCCGG,-0.198
15,AUCAGCU,-0.704
16,GGUUUCU,-0.0233
17,AGUGUUU,0.0277
18,CAAACUC,-0.887
19,AAACAAG,0.585
20,CCCGUGA,-0.377
21,CGCCGUA,-0.588
22,CGAUCCA,-0.61
23,UACGCUA,-0.508
24,AGUAGAG,1.26
25,GAGGCAC,0.778

row,Sequence,RNAcompete 7-mer binding Z-score
1,UCUGCAG,-0.664
2,CAGUUCG,-0.573
3,AAUGUCA,-0.315
4,GCAGACG,0.949
5,AGAAAAG,1.31
6,CUCCCCA,-0.734
7,AAGUCAC,-0.493
8,GGAAUAU,1.17
9,GGUGUUC,0.355
10,UCGCAGC,-0.271
11,AGCAGCU,-0.409
12,ACCGCCC,-0.956
13,ACUGAUU,-0.588
14,GAGGGAU,3.31
15,UGUCCCG,-0.621
16,CAAGGAC,0.847
17,CCUCAGU,-0.825
18,GUUCGCG,-0.366
19,AUUCUGG,-0.18
20,ACGCUCA,-0.701
21,UCCGGGC,-0.078
22,GUGUAGG,3.05
23,AUUACGA,-0.293
24,UGGUCCG,-0.0161
25,AAGGAGU,3.12

row,Sequence,RNAcompete 7-mer binding Z-score
1,GUUUACU,-0.57
2,GGUACAU,0.891
3,GAACUGC,-0.508
4,AACGAUA,0.0532
5,GCUGCUG,-0.377
6,CUCGUUG,-0.511
7,UGCCGAU,-0.708
8,AGUCGAA,0.115
9,UGUAAUA,-0.475
10,CAACGUC,-0.53
11,ACCUCUA,-0.908
12,UCCGACU,-0.752
13,CACUAGC,-0.635
14,AGUAACA,0.192
15,UAGUUGU,-0.49
16,GAAUGGA,3.56
17,UAUAACG,-0.446
18,AUGUGCA,0.283
19,AGGCCUG,-0.632
20,CUUUAUC,-0.934
21,AAAAACA,-0.0525
22,GUCAGAC,-0.22
23,CUUGUGA,-0.694
24,AAGAGAA,0.45
25,AACAACG,0.0277

row,Sequence,RNAcompete 7-mer binding Z-score
1,GUACUUU,-0.694
2,UACUAAU,-0.57
3,GUGCUGG,1.47
4,CACGUAG,0.268
5,UCCUGAC,-0.788
6,CACAUCG,-0.548
7,AAGAUCG,0.0641
8,GCCGCGC,-0.577
9,UAAGAAG,0.64
10,UGGGGCU,2.16
11,UUGUCCG,-0.744
12,AUGUGUA,0.428
13,GCACCAA,-0.369
14,GCGCUGG,0.705
15,GUAAUGA,0.436
16,AACCCCG,-0.617
17,UGUUCCA,-0.712
18,GAAAAGG,4.73
19,GGUGUAC,1.44
20,GCUAUCG,-0.551
21,UCAACUC,-0.675
22,AAGAUAC,-0.253
23,GACGCCU,-0.989
24,CUACUUG,-0.839
25,AAUCCCU,-0.741

row,Sequence,RNAcompete 7-mer binding Z-score
1,CCAUCCG,-0.73
2,GAUGUCG,-0.0379
3,AGAUUGG,2.14
4,CUGCCUU,-0.938
5,GUACGAU,0.323
6,UCAAUGC,-0.533
7,AUCCAGG,0.508
8,AGCGAAC,0.137
9,CUCUGAA,-0.883
10,GGUUAAA,1.37
11,GUGGCAG,1.99
12,CAUCACC,-0.77
13,ACCCGGG,0.00944
14,UACACAC,-0.42
15,CCCCAUU,-0.795
16,UCAGGCC,-0.49
17,GCGGAAU,1.17
18,UGCUCUU,-0.938
19,UAGCCCA,-0.799
20,UUCUAUC,-0.814
21,UGGCAUA,0.468
22,UUAAGAC,-0.621
23,AUCCUGU,-0.887
24,CCAGCCC,-0.468
25,GAUGCCG,-0.395

row,Sequence,RNAcompete 7-mer binding Z-score
1,ACGACCU,-0.952
2,GCGAGUC,0.235
3,UGCAUGC,-0.734
4,UCCGCAU,-0.865
5,CUGGUGG,1.22
6,CCGAGGU,0.487
7,AACUAUC,-0.635
8,GCGGAUC,0.793
9,AUAUGCA,-0.027
10,AGGAUUG,1.45
11,GCGGUAC,0.599
12,GAGUUAC,0.151
13,GUUCGCU,-0.581
14,GUUGCCU,-0.613
15,CUAAGGA,0.286
16,CGGUCUU,-0.694
17,GUCGGUA,0.709
18,GGCUCAU,-0.395
19,AUCUCUU,-0.846
20,UGACAAG,0.348
21,UGCGGCC,-0.439
22,GGCACUU,-0.468
23,UGGCCCU,-0.522
24,CUGCGGU,0.0714
25,UCCGUCU,-0.763

row,Sequence,RNAcompete 7-mer binding Z-score
1,UUAUAGU,-0.442
2,CUACGGG,1.08
3,AACGUUC,-0.602
4,GGUGAAC,1.77
5,GUAGAUU,0.166
6,AGGGAUU,2.37
7,GGAGACA,1.88
8,CGCCGAU,-0.664
9,GAGCGGG,3.33
10,UGUAUUG,-0.398
11,CCUGAGU,-0.621
12,AACAGCU,-0.544
13,UCCAAAG,-0.38
14,CUGCAAA,-0.508
15,UCCCGCU,-0.795
16,UACGGAG,0.982
17,CAGAACU,-0.482
